# Results published in the supplement of paper PMC4166925.
# ± gives the standard deviation of the averaged measurements. Whole data set: some 33,000 sequences, median “E-score (dimensionless, -0.5 to 0.5)” near -0.049, cut for the highest 2% near 0.37. The list shows a part of the results.
# System: T1, PmTbr T-box DNA-binding domain (GST fusion)
# T1 sequence: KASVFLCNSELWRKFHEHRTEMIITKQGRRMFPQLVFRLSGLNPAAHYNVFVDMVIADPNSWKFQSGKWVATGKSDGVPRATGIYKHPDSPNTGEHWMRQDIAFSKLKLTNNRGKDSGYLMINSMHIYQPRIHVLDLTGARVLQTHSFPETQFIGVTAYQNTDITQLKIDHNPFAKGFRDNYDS
# Experiment: PBM E-score of 8-mer (E-score (dimensionless, -0.5 to 0.5)); Tbr is Tbrain of the sea star Patiria miniata (Pm) or the sea urchin Strongylocentrotus purpuratus (Sp); higher = stronger binding preference; most listed sequences are background and not binding sites
# Conditions: the construct has about 5 more residues each side
# Summary of the method: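 Primer extension turned Universal Agilent oligonucleotide arrays double-stranded. They were incubated with 200 nM protein in PBS (pH 7.5); the protein was a GST-fused Tbr T-box DNA-binding domain expressed in BL21 E. coli at 20 °C and purified on glutathione. Every ungapped 8-mer was scored from the scanned, quantified probe intensities, and the Universal PBM Analysis Suite gave each an enrichment E-score averaged over duplicate arrays.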
row,Sequence,PBM E-score of 8-mer
1,CAAGGTCG,0.004 ± 0.014
2,CACTGAAG,-0.0542 ± 0.036
3,CGGGCCTC,-0.161 ± 0.012
4,CGAGTTAA,0.1978 ± 0.0014
5,AAAACACC,0.348 ± 0.031
6,CTTCAGCC,-0.134 ± 0.022
7,ACGTAGCG,-0.0316 ± 0.038
8,ACGACAAA,-0.0758 ± 0.068
9,AGCAGGCA,-0.0956 ± 0.015
10,TACCACAA,-0.0323 ± 0.0016
11,AGTCGATC,-0.0863 ± 0.0044
12,TCCTAACA,0.265 ± 0.0096
13,CGGCGGGC,-0.224 ± 0.052
14,GGTAGTTA,-0.0453 ± 0.015
15,ACGCTGGG,-0.0401 ± 0.05
16,GTGATTCA,0.145 ± 0.04
17,CGTAATTA,-0.193 ± 0.0081
18,CGTACGAC,-0.0777 ± 0.0065
19,CAGATCAC,0.0588 ± 0.011
20,GGAGTCGA,0.0754 ± 0.0085
21,CGATGGAG,-0.109 ± 0.038
22,ACTGGGAT,0.0295 ± 0.012

row,Sequence,PBM E-score of 8-mer
1,AGGCAAGG,-0.216 ± 0.0041
2,CGGCAGGC,-0.0598 ± 0.015
3,ACATATAC,-0.0692 ± 0.026
4,ATGGACGG,-0.248 ± 0.014
5,CAGTCCGC,0.028 ± 0.053
6,CACCGTGG,0.209 ± 0.0039
7,GGCTGCGA,0.167 ± 0.044
8,AGCTAAAG,-0.205 ± 0.036
9,CATCAAAG,-0.0524 ± 0.035
10,ACTACGTG,0.115 ± 0.04
11,AAACCTTA,-0.0234 ± 0.053
12,AAACTATA,-0.022 ± 0.096
13,ACGACGCC,0.13 ± 0.0084
14,ATGCGAGA,0.144 ± 0.02
15,CCGCTGCC,-0.0631 ± 0.0041
16,CAAATACC,-0.0183 ± 0.11
17,ATCGTGAG,0.166 ± 0.0089
18,CGCGTCAA,0.308 ± 0.0074
19,AGCCAAAC,0.0279 ± 0.0027
20,CGAATCTC,0.0196 ± 0.022
21,ATACTAAA,-0.0773 ± 0.064
22,CAATCGGG,-0.195 ± 0.031

row,Sequence,PBM E-score of 8-mer
1,CTGCGTCC,-0.282 ± 0.0038
2,GGCTTTAA,-0.168 ± 0.055
3,GAGATCTC,0.213 ± 0.061
4,ATCCTGTA,-0.0772 ± 0.04
5,AGCAAATG,-0.154 ± 0.061
6,TAGAGACA,-0.0816 ± 0.018
7,GGCATTAC,-0.165 ± 0.0079
8,AGATGAGC,-0.328 ± 0.058
9,TATGTAGA,-0.0657 ± 0.046
10,CCGAGCTA,-0.0153 ± 0.082
11,CACGAGGA,-0.138 ± 0.032
12,CATGCAAG,0.0255 ± 0.013
13,ATGGTGGC,0.271 ± 0.056
14,GAGTCATA,-0.223 ± 0.038
15,ATATTTAC,-0.0829 ± 0.0039
16,GGAACGGA,0.133 ± 0.013
17,AAAAGTGA,0.197 ± 0.059
18,CGCCTACA,0.14 ± 0.016
19,AGTAACAA,0.167 ± 0.0063
20,GCACGCAA,-0.0192 ± 0.0044
21,CGCCTAGC,0.216 ± 0.011
22,GGAATATA,-0.235 ± 0.045

row,Sequence,PBM E-score of 8-mer
1,CTACAGAG,-0.187 ± 0.022
2,AGTCTTGA,-0.0572 ± 0.011
3,AACTGGAC,0.0168 ± 0.033
4,ATACGCAA,0.00573 ± 0.041
5,ACTGGGGA,-0.0346 ± 0.062
6,CGATTCAC,0.143 ± 0.0046
7,AAGAAGCG,0.121 ± 0.037
8,AGGACACG,-0.0089 ± 0.017
9,AATTATCA,0.102 ± 0.075
10,AATAAGCA,-0.084 ± 0.011
11,GAACGAGC,-0.256 ± 0.017
12,AGGGTCGC,0.166 ± 0.034
13,CCGGGCTC,-0.282 ± 0.041
14,ACGCCAAG,0.0568 ± 0.02
15,GCGGGAAC,0.159 ± 0.063
16,GATGGTGA,0.199 ± 0.0021
17,CCCACCAC,-0.0276 ± 0.048
18,GACTGCGA,0.191 ± 0.012
19,AACCTCCA,-0.158 ± 0.028
20,CGCTGGAG,-0.141 ± 0.049
